Screen size: about 310,000 compounds; about 2,200 (0.71%) showed an effect of 50% or more. Effects have a minus sign here. The list shows a part of the results.
molecular target: human ether-à-go-go-related gene (hERG) potassium channel (human, UniProt Q12809); assay: primary screen, population patch clamp on CHO cells stably expressing hERG
Sequence (Q12809 whole entry, looked up): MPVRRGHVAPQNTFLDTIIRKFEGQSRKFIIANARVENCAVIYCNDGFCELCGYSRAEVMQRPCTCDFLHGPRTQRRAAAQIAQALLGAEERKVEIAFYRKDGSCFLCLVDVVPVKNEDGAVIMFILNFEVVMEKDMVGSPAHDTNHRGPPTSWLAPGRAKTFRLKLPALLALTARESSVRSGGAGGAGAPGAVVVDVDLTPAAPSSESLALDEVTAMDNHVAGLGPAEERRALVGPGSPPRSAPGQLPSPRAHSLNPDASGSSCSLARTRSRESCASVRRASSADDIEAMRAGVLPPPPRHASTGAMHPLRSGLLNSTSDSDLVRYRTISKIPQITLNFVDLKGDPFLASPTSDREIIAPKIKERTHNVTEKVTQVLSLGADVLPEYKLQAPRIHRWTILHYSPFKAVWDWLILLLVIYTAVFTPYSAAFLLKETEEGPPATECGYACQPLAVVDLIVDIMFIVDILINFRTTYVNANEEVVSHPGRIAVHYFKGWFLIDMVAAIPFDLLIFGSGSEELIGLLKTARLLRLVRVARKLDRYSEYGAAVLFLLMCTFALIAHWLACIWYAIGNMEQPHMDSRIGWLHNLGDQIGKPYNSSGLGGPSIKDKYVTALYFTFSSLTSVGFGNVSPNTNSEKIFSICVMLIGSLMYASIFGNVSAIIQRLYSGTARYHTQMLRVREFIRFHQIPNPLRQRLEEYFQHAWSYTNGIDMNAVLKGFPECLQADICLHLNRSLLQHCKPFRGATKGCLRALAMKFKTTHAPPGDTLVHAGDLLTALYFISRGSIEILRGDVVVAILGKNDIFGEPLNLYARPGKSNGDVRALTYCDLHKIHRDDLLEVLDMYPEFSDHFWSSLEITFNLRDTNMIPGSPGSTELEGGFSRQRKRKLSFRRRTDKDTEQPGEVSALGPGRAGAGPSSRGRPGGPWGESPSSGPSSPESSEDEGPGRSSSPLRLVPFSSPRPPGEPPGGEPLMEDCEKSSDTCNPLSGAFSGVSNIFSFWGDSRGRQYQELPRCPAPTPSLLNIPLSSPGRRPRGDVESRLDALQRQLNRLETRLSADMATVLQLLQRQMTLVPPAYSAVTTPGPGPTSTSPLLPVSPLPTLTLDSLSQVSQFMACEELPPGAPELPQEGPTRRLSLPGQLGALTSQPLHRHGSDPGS

SMILES | hERG current change (%, negative = inhibition) at 1uM [%]
N#Cc1ccccc1CSc1nc(N)cc(N)n1 | 11.8
CCNS(=O)(=O)c1c(C)cc(N2CCCC2=O)cc1C | 6.3
Cc1ccc2nc(-c3ccc4c(c3)OCCO4)cn2c1 | 15.7
Cc1cccc(C(=O)NC(C(=O)Nc2cccc(S(=O)(=O)N3CCCC3)c2)C(C)C)c1 (centres unmarked) | 12.1
CCN(C(=O)Cn1cnc2c(nc3n2CCCCC3)c1=O)c1cccc(Cl)c1 | 8.61
O=S(=O)(N/N=C/c1ccc2c(c1)OCCO2)c1ccccc1 | -2.55
Cc1nc2cc(-c3ccc(Cl)cc3)nn2c(C)c1CCC(=O)NC(C)c1ccc2c(c1)OCCO2 (centres unmarked) | -2.05
COc1ccc(/C=C2/SC(=S)N(CCCC(=O)N3CCN(C)CC3)C2=O)cc1 | 10.7
Cc1ccc(C)c(N2CCN(S(=O)(=O)c3ccc4c(c3)CCN4C(=O)CCC(=O)O)CC2)c1 | 9.48
O=C(N/N=C/c1ccc2c(c1)OCO2)c1cc(-c2ccccc2Cl)nc2ccccc12 | 10.2
Cc1nc([N+](=O)[O-])c(C(=O)OCc2ccc(C#N)cc2)n1C | 5.44
CCS(=O)(=O)Nc1ccc(C2=NN(S(=O)(=O)c3ccc(F)cc3)C(c3ccco3)C2)cc1 (centres unmarked) | -21
CCOc1ccc(NC(=O)C2CC(=O)N(CCc3ccc(OC)c(OC)c3)C2)cc1OCC (centres unmarked) | 10.4
O=C(O)/C=C/C(=O)Nc1ccccc1-c1ccccc1NC(=O)/C=C/C(=O)O | 16.4
Cc1cc(C)cc(OCC(=O)Nc2cccc(-c3nnc(-c4ccco4)o3)c2)c1 | 6.43
Cc1ccc(Cn2nnc(C(=O)Nc3cc(C)ccc3C)c2N)cc1 | 8.18
Cc1ccc(OCC(=O)N(C)CC(=O)Nc2cccc(F)c2)cc1 | 8.3
Cc1ccc(C(=O)Nc2ccc(C(=O)O)cc2NC(=O)c2ccc(C)cc2)cc1 | 9.55
O=C(CCc1ccccc1)Nc1ccc2ccccc2n1 | -2.39
CCn1c(CNc2ccc(F)cc2)nnc1SCCN1CCCCC1 | 7.67
COC(=O)c1ccc(NC(=O)C2CCCO2)cc1 (centres unmarked) | 5.7
O=c1ccn(Cc2ccccc2)c2ccccc12 | 7.82
COC(=O)CNC(c1ccccc1)c1cc(Br)ccc1N (centres unmarked) | -2.27

SMILES | hERG current change (%, negative = inhibition) at 1uM [%]
COc1ccc(OC)c(NC(=O)CSc2nnc(CNC(=O)c3ccccc3F)o2)c1 | 14.5
CC(C)(C)C(=O)Nc1sc2c(c1C(=O)Nc1ccccn1)CCCC2 | -2.96
COc1ccc(CCn2c(C3CCCCC3)nc3c(c(=O)c4ccccc4n3C)c2=O)cc1OC | 9.2
CC/C(=N\NC(N)=O)c1ccc(OC(F)F)cc1 | -7.16
C/C(N)=C(/C#N)C(=O)COC(=O)c1cc(-c2ccccc2)nc2ccc(Br)cc12 | 11
O=C1CC(N2CCC(O)(c3ccc(Br)cc3)CC2)C(=O)N1c1ccc(Cl)cc1 (centres unmarked) | -5.91
Cc1ccc(CN2CCN(/N=C/C(Br)=C\c3ccccc3)CC2)cc1 | 9.76
Cc1ccc(OCc2cc(C(=O)NCc3ccc(OC(F)(F)F)cc3)no2)cn1 | 7.67
CCOC(=O)CC(=O)NC(C)(C)CCCCC(C)(C)NC(=O)CC(=O)OCC | 14
COc1ccc(C2NC(=O)NC(C)=C2C(=O)OCC2CCCCC2)cc1OC (centres unmarked) | 9.95
C/C(=N/Oc1nc(C)cc(C)n1)c1ccc(Cl)cc1Cl | 15
C/C(=N\Nc1ccccn1)c1ccc(N2CCOCC2)cc1 | 3.01
Cc1cccc(NC(=O)N2CCC(C(=O)c3ccc(F)cc3)CC2)c1 | 6.21
CSc1ccccc1OCc1cc(C(=O)N2CCc3[nH]cnc3C2c2ccccn2)no1 (centres unmarked) | 8.48
Cc1nn(CC(=O)NCc2cc3ccccc3[nH]2)c(C)c1[N+](=O)[O-] | 13
COc1ccc(/C=C/C(=O)O)cc1COc1cccc(C)c1 | 9.98
Cc1cc2nncn2c2ccccc12 | 15.7
O=C(CCN1C(=O)COc2ccccc21)NCCN1CCc2ccccc2C1 | -12.3
CC(C(=O)NCc1ccccc1)n1cc([N+](=O)[O-])cn1 (centres unmarked) | 9.6
CCN1C(=S)N[C@@H](c2ccccc2)C(C(=O)OC)=C1C | 15.4
COCCNC(=S)Nc1ccc(S(=O)(=O)Nc2ncccn2)cc1 | 5.43
C/C(=N\NC(=O)c1c(Cl)cnn1C)c1cccc(NC(=O)c2ccc(C)cc2)c1 | 5.05
NC(=O)c1ccsc1NC(=O)CCc1ccccc1 | 12.2

SMILES | hERG current change (%, negative = inhibition) at 1uM [%]
CCn1cc(/C=C(\NC(=O)c2ccccc2F)C(=O)NCCN2CCOCC2)c2ccccc21 | 9.09
COc1cc(C(=O)NCCC(=O)NCCCN2CCCCC2)cc(OC)c1OC | 3.53
COc1ccc(NC(=O)Nc2cnccn2)c(OC)c1 | -7.6
COc1ccc(CCn2c(C)c(C(C)=O)c(C(C)=O)c2C)cc1OC | 11.6
O=C(O)C(S)C(S)C(=O)O (centres unmarked) | 14.2
CC(CC(=O)Nc1ccc(Br)cc1F)S(=O)(=O)c1ccc2c(c1)NC(=O)CO2 (centres unmarked) | -4.3
Cc1nn(CC(=O)Nc2ccc(N3CCOCC3)cc2)c(C)c1Br | 11.1
CCCS(=O)(=O)N1CCCC(C(=O)NCCN(CC)c2ccccc2)C1 (centres unmarked) | -1.62
NC1=NC(=O)C(CC(=O)Nc2ccc3c(c2)OCO3)S1 (centres unmarked) | 0.639
Cc1ccc2nc(Cl)c(C3CC(c4cccs4)=NN3C(=O)CCCC(=O)O)cc2c1 (centres unmarked) | 13.4
COCCN=c1scc(C)n1/N=C/C1CC2C=CC1C2 (centres unmarked) | 4.08
NCCCS(=O)(=O)O.O.[Na+] | 2.82
O=C(O)CC(CC(=O)NCC(O)c1ccccc1)c1ccccc1 (centres unmarked) | 3.29
O=C(NC1CCCCCCC1)c1ccc(F)c(S(=O)(=O)N2CCOCC2)c1 | 8.48
NNc1nc2sc3c(c2c(=O)[nH]1)CCc1ccccc1-3 | 10.3
CC1CCc2nn(CC(=O)NCCC3=CCCCC3)cc2C1 (centres unmarked) | 12.7
CSc1nnc(OC(=O)N(C)C)n1-c1ccc(Cl)cc1 | 11.8
CC(=O)NCc1ccc(S(=O)(=O)NC2CCN(Cc3ccccc3)CC2)cc1 | 12.3
Cc1nccn1CCCNC(=O)c1nc(Cn2cc([N+](=O)[O-])cn2)no1 | 14.8
Cn1cc(C(=O)N2CCC3(CC2)OCCO3)c2c3ccccc3n(C)c2c1=O | 16.2
Cl.OC(COc1ccc(F)cc1)CN1CCN(c2ccccc2F)CC1 (centres unmarked) | -49.5
Cc1cc(-c2nc(-c3ccncc3)no2)ccc1[N+](=O)[O-] | 5.88
O=C(NC1CCC(CC2CCC(NC(=O)C(Cl)Cl)CC2)CC1)C(Cl)Cl (centres unmarked) | 15.7

SMILES | hERG current change (%, negative = inhibition) at 1uM [%]
CC(=O)Nc1ccc(NC(=O)CSc2nc(C)nc3sc(C)c(C)c23)cc1 | 15.2
O=C(CN1CCC(NC(=O)c2ccc(Br)cc2)CC1)NCc1cccs1 | 11
CC(=O)c1ccc(Oc2ccc(C(C)=O)cc2)cc1 | 13.8
CCCCCCCCCCCCCCCCn1cc[n+](C)c1.[Br-] | 13.3
CCOC(=O)c1c(CC(C)C)csc1NC(C)=O | 3.94
COC(=O)c1[nH]c2ccccc2c1NC(=O)CCN1CCSCC1 | 12.6
Cc1cccc(NC(=S)/N=C(\N)Nc2nc(C)c3cc(C)ccc3n2)c1 | 10.5
CN(C)CCCN(C(=O)c1ccc2c(c1)CCCC2)c1nc2ccc(F)cc2s1.Cl | -12.5
COc1ccc(CN2CCN(C(C)C)C(CCO)C2)cc1Cn1cccn1 (centres unmarked) | 12
CC(C)(C)OC(=O)NCCCC[C@H](NC(=O)c1[nH]cnc1C(=O)Nc1ccccc1)C(=O)OC(C)(C)C | 20.8
Cc1c(CCC(=O)NCCCC(=O)O)c(=O)oc2cc3oc4c(c3cc12)CCCC4 | 16.4
O=S(=O)(c1ccc2c(c1)OCCO2)N1CCC(n2nnc3cc(C(F)(F)F)ccc32)CC1 | 1.12
CN(C)CCN(C(=O)c1ccc(N2C(=O)CCC2=O)cc1)c1nc2cc3c(cc2s1)OCO3.Cl | 4.9
CCn1cc(C(=O)OCC(=O)Nc2ccc(C(C)C)cc2)c(=O)c2ccc(C)nc21 | 5.91
Cc1ccc(-c2nnnn2-c2ccc(C)cc2)cc1 | 8.63
O=C(O)c1cccc(Nc2ncnc3ccc(Br)cc23)c1 | 11
Cc1ccccc1NC(=O)Nc1cc(-c2ccccc2)nn1C | 3.01
Nc1nonc1N1CCCCC1 | 13.8
CCN1C(=NCCOC)N[C@@H](c2cccc(F)c2)C(C(=O)OC)=C1C | -0.149
COC(=O)c1ccc(CN2CCCC(C(=O)Nc3ccc(-c4ccn[nH]4)cc3)C2)cc1 (centres unmarked) | 16

Reference: PMC4336329 (PLoS ONE, 2015)
